Laboratory results taken from the supplement of paper PMC7125110.
± gives the standard error. Variants at the floor of the assay are shown more often than the library holds them.

B1: glmS ribozyme (parent)
chain: AUAAAAGCGCCAGAACUACAGAAAUGUAGUUGACGAGGAGGAGGUUUAUCGAAUUUUCGGCGGAUGCCUCCAAA

Assays:
Conditions in all cases: with glucosamine-6-phosphate
glucosamine-6-phosphate [1] = variants of: B1; assay: self-cleavage kobs at 640 uM GlcN6P; higher = faster cleavage; RNA array
Summary of the method: (§1)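 In situ transcription by E. coli RNA polymerase produced barcoded ribozyme variants on sequenced MiSeq chips, and a hybridised Cy3 probe tracked them at 37 °C. Glucosamine-6-phosphate was flowed in at 40 μM to 10 mM in HEPES/KCl/Mg(OAc)2 buffer. kcat and KM were taken from weighted Michaelis–Menten fits of kobs values from exponential decay fits.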

glucosamine-6-phosphate [2] = variants of: B1; assay: self-cleavage kobs at 2500 uM GlcN6P; higher = faster cleavage; RNA array
Summary of the method: as §1

glucosamine-6-phosphate [3] = variants of: B1; assay: self-cleavage kobs at 10000 uM GlcN6P; higher = faster cleavage; RNA array
Summary of the method: as §1

glucosamine-6-phosphate [4] = variants of: B1; assay: self-cleavage kobs at 160 uM GlcN6P; higher = faster cleavage; RNA array
Summary of the method: as §1

Variant	self-cleavage kobs at 640 uM GlcN6P (glucosamine-6-phosphate [1])	self-cleavage kobs at 2500 uM GlcN6P (glucosamine-6-phosphate [2])	self-cleavage kobs at 10000 uM GlcN6P (glucosamine-6-phosphate [3])	self-cleavage kobs at 160 uM GlcN6P (glucosamine-6-phosphate [4])
G13U C34G U45C U47A	< 1e-05 s⁻¹	< 1e-05 s⁻¹		
G13U G29U A39G	0.000115 ± 2.8e-05 s⁻¹	7.21e-05 ± 2.3e-05 s⁻¹		
G13U G29U G40A C50U	< 1e-05 s⁻¹	< 1e-05 s⁻¹	< 1e-05 s⁻¹	
G13U G32A C70A	5.59e-05 ± 2.4e-05 s⁻¹	0.000106 ± 3.2e-05 s⁻¹		
G13U G32C A33U C68G C71U	< 1e-05 s⁻¹	< 1e-05 s⁻¹	< 1e-05 s⁻¹	< 1e-05 s⁻¹
G13U G32U G51C G59A	< 1e-05 s⁻¹	< 1e-05 s⁻¹		< 1e-05 s⁻¹
G13U G35C G38C G43C C67A	< 1e-05 s⁻¹			
G13U G40A G43C U49C C68G	< 1e-05 s⁻¹			
G13U G41U C67U	< 1e-05 s⁻¹	< 1e-05 s⁻¹	< 1e-05 s⁻¹	
G13U G63A C71U	< 1e-05 s⁻¹	< 1e-05 s⁻¹		
G13U U56G C70G	6.47e-05 ± 3.1e-05 s⁻¹	4.09e-05 ± 1.9e-05 s⁻¹		
A14C A15G A36G U45A U49A U56C	< 1e-05 s⁻¹	< 1e-05 s⁻¹		
A14C A52U C61A	< 1e-05 s⁻¹			< 1e-05 s⁻¹
A14C A53G A64U	< 1e-05 s⁻¹			< 1e-05 s⁻¹
A14C C16G	4.86e-05 ± 1.2e-05 s⁻¹	8.11e-05 ± 8.9e-06 s⁻¹	7.9e-05 ± 6.9e-06 s⁻¹	
A14C C34U	< 1e-05 s⁻¹	< 1e-05 s⁻¹	< 1e-05 s⁻¹	< 1e-05 s⁻¹
A14C C68G	4.49e-05 ± 1.5e-05 s⁻¹		2.58e-05 ± 8.4e-06 s⁻¹	
A14C G32A C34A	< 1e-05 s⁻¹	< 1e-05 s⁻¹		
A14C G32C G35U U57A	< 1e-05 s⁻¹			< 1e-05 s⁻¹
A14C G32U	0.000206 ± 3e-05 s⁻¹	0.000576 ± 7.9e-05 s⁻¹	0.00103 ± 0.00012 s⁻¹	6.08e-05 ± 2.1e-05 s⁻¹
A14C G51C	< 1e-05 s⁻¹	< 1e-05 s⁻¹	< 1e-05 s⁻¹	
A14C G51C C61U	< 1e-05 s⁻¹	< 1e-05 s⁻¹		
A14C U30C A52U G60C	< 1e-05 s⁻¹	< 1e-05 s⁻¹		
A14G A33G A53U G62A	< 1e-05 s⁻¹	< 1e-05 s⁻¹		< 1e-05 s⁻¹
